Laboratory results as given in PubChem BioAssay AID493208 (National Center for Advancing Translational Sciences (NCATS), 2011).
In all, about 44,000 compounds went through this assay and about 340 (0.77%) were called active. About 5% were inconclusive and are not listed. Calls come from the whole dose curve; as a rule, active = well fitted inhibition curve with a large enough effect; inconclusive = small, poorly fitted or top-dose-only effect; inactive = flat fitted curve, though single readings scatter. Some of the results follow.

assay: Acumen qHTS Assay for Inhibitors of the mTORC1 Signaling Pathway in MEF (Tsc2-/-, p53-/-) Cells: Sytravon; details: phospho-rpS6 immunofluorescence/PI, 24 h; series mostly up to 38.3 µM; activity change, negative = inhibition: at the top concentration;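 note: plate controls were DMSO for no effect and rapamycin for full effect; nearly all actives have a fitted effect of over 50% in size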
How it was run: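 Cell-based qHTS: Tsc2-/- p53-/- MEF, 24 h cpd, 37 °C; fix/perm, anti-phospho-S6 Alexa-488 + PI; Acumen 488 nm scan; pS6/PI ratio, % positive cells; rapamycin 7.5 nM = inhibition ref; PI count = viability.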

Activity change, negative = inhibition, inactive:
COc1cccc(CNC(=O)c2ccc(-c3nc(CSc4ccccc4)c(C)o3)cc2)c1 -9.27%
CCCN(CCC)CCCNC(=O)c1cc2c(=O)n(C)c3ccccc3c2s1 1.17%
CC(=O)Nc1ccccc1-c1nc2ccccc2n(C(C)C(=O)Nc2ccccc2C(F)(F)F)c1=O (configuration not stated) 0%
COc1ccc(-c2c(C)c3ccc(O)c(CN4CCC(C)CC4)c3oc2=O)cc1OC 0.295%
COc1ccc(C(Nc2ccccn2)c2ccc3ccc(C)nc3c2O)cc1C (configuration not stated) 4.23%
CN1CCN(c2ncnc3c2cnn3-c2cccc(Cl)c2)CC1 6.71%
Cc1cccc(N2CCN(C3=C(c4ccccc4)C(=O)c4ccccc43)CC2)c1C -29.1%
Cc1ccc(CNC(=O)c2cc(=O)c3cc(C)ccc3o2)cc1 -8.79%
COc1cc(OC)c(OC)cc1/C=C/c1nc2cc3ccccc3cc2c(=O)n1-c1ccccc1Br 7.38%
COc1cc2c(c(OC)c1)C(c1cccc(F)c1F)CC(=O)N2 (configuration not stated) 3.21%
CCOC(=O)c1c(NC(=O)c2cc(=O)c3cc(C)ccc3o2)sc2c1CCCC2 3.48%
COc1ccc(Cl)cc1NC(=O)CSC1=Nc2ccccc2C2=NC(CCC(=O)NCc3ccco3)C(=O)N12 (configuration not stated) -6.66%
Cc1ccc(Cn2c(CCNC(=O)c3cccc(C)c3)nc3ccccc32)cc1 -7.38%
Cc1cccc(NC(=O)CN2C(=O)C3(SCC(=O)N3c3ccccc3)c3ccccc32)c1 (configuration not stated) -2.31%
Cc1ccc(Cn2c(C(=O)O)c(CNCc3ccc(C)o3)c3ccc(C)cc32)cc1 -3.02%
Cc1ccc(S(=O)(=O)N2CCN(Cc3ccccc3Cl)CC2)cc1 -4.68%
COc1ccc(NC(=O)c2cccc(N3CCCS3(=O)=O)c2)c(OC)c1 0.902%
CC(C)Cn1cc(NC(=O)NCc2cccc(Cl)c2)c2ccccc2c1=O 1.33%
O=C(NCCC1=CCCCC1)c1ccc2c(c1)sc1nc(-c3ccc(F)cc3)cn12 -15.1%
O=C(NCCc1ccccc1)c1ccc2c(c1)N(Cc1ccc(F)cc1)C(=O)CS2 2.56%
CCN(CC)c1ccc(NC(=O)CN2CCN(CC(=O)Nc3ccc(Cl)cc3)CC2)cc1 1.28%
Cc1ccc2oc(C(=O)Nc3sc4c(c3C(=O)NCC3CCCO3)CCC4)cc(=O)c2c1 (configuration not stated) -0.185%
COCCNC(=O)Cn1nc(-c2ccccc2)c2ccccc2c1=O -1.68%
COc1cc(OC)c(C2CC(=O)Nc3ccc4ccccc4c32)cc1OC (configuration not stated) 1.87%
CC(NC(=O)c1cc2c(=O)n3ccccc3nc2n(C(C)C)c1=N)c1ccccc1 (configuration not stated) -11.3%
CC(NC(=O)Cn1c(=O)oc2cc(S(=O)(=O)N3CCCCCC3)ccc21)c1ccccc1 (configuration not stated) 0.0619%
COC(=O)c1ccccc1NC(=O)c1nc(-c2ccc(C)cc2)n2c1CCCCC2 6.57%
